The text below walks through data of the supplement of paper PMC4967469.

Lines with a small IC50 respond at low doses; a fit beyond the top or the lowest dose is shown as a bound at that dose. The AUC spans the tested range (256-fold, ending at the top dose) of the same fit; values near 1 show little effect. For some assays here: The top dose, if marked as inferred, was calculated from the reported fits. For some assays here: Where an entry number is given, a second screen of the drug exists; the two often differ. A value given as a limit tells only on which side of the number the result lay.

What all share (test): Viability of human cancer cell lines after 72 h of drug (GDSC screen)
Compound in one experiment: O=c1[nH]cc(F)c(=O)[nH]1 [5-Fluorouracil]
The note with it: top dose 32 µM; top dose inferred. As for the experimental part:
(§1)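 Human cancer cell lines in 384-well plates, medium with 10% serum, drug for 72 h over a 256-fold dose range (nine 2-fold or five 4-fold steps up to the top dose). Adherent lines were fixed and stained with the nucleic acid dye Syto60, suspension lines read with resazurin; signal relative to control wells, capped at 0 and 100%. One two-parameter sigmoid per drug and line, fitted in a mixed model over all curves with the slope shared within a line.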

Compound in the next experiment: Fc1cc(-c2ccnc(Nc3ccc(-n4cnc(N5CCOCC5)n4)cc3)n2)cc(N2CCOCC2)c1 [JNK-9L]
Conditions: top dose 5.12 µM; top dose inferred. How it is done:
as §1

Compound in a further experiment: C#Cc1cccc(Nc2ncnc3cc(OC)c(OCCCCCCC(=O)NO)cc23)c1 [CUDC-101]
Conditions: top dose 5.12 µM; top dose inferred. As for the experimental part:
as §1

Compound in another experiment: NCC(=O)Nc1ccc(-n2nc(C(F)(F)F)cc2-c2ccc3c(ccc4ccccc43)c2)cc1 [OSU-03012]
Conditions: top dose 16 µM; top dose inferred. How it is done: as §1

Compound in another experiment: CC(C)(C)c1cc(NC(=O)Nc2ccc(-c3cn4c(n3)sc3cc(OCCN5CCOCC5)ccc34)cc2)no1 [AC220]
Conditions: top dose 1.024 µM; top dose inferred. As for the experimental part:
as §1

Compound in a further experiment: COc1cc(F)c(F)c(Nc2ccc(I)cc2F)c1NS(=O)(=O)C1(C[C@H](O)CO)CC1 [RDEA119]
Conditions: top dose 5 µM, top dose inferred. How it is done:
as §1

Compound in the next experiment: OC[C@H](Cc1ccccc1)Nc1nc(Oc2ccc3c(c2)CCC3)nc2c1ncn2Cc1ccc(-c2ccccc2)cc1 [QS11]
Conditions: top dose 10.24 µM. How it is done: as §1

Consider “CMK (acute myeloid leukaemia, suspension)”, for which the AUC in the experiment with 5-Fluorouracil is 0.615; with JNK-9L, 0.588; in the experiment with CUDC-101, 0.357; with OSU-03012, 0.61; in the experiment with AC220, 0.939; with RDEA119 (screen: GDSC drug entry 1014), 0.963. For the same cell line, the figures for the AUC with RDEA119 (screen: GDSC drug entry 1526) and in the experiment with QS11 were 0.975 and 0.885, respectively. Besides, the IC50 was 3.92 µM with 5-Fluorouracil; 0.535 µM in the experiment with JNK-9L; 0.138 µM with CUDC-101; 1.9 µM with OSU-03012; more than 1.02 µM in the experiment with AC220; more than 5 µM in the experiment with RDEA119 (screen: GDSC drug entry 1014). Moreover, the IC50 was more than 5 µM with RDEA119 (screen: GDSC drug entry 1526) and 8.25 µM with QS11.

Regarding “COLO-320-HSR (large intestine, suspension)”, the AUC in the experiment with 5-Fluorouracil was 0.884; in the experiment with JNK-9L, 0.589; with CUDC-101 it was 0.739; in the experiment with OSU-03012 it was 0.73; in the experiment with AC220 it was 0.987; with RDEA119 (screen: GDSC drug entry 1014), 0.991. The AUC with RDEA119 (screen: GDSC drug entry 1526) stood at 0.991; with QS11, 0.897. In addition, the IC50 in the experiment with 5-Fluorouracil was 26.8 µM; with JNK-9L, 0.541 µM; in the experiment with CUDC-101, 1.38 µM; with OSU-03012, 4.06 µM; in the experiment with AC220, more than 1.02 µM; in the experiment with RDEA119 (screen: GDSC drug entry 1014), more than 5 µM. For the same cell line, the IC50 with RDEA119 (screen: GDSC drug entry 1526) was more than 5 µM; in the experiment with QS11, 9.72 µM.

Consider “COLO-668 (small cell lung carcinoma, adherent)”, for which the AUC in the experiment with 5-Fluorouracil turned out to be 0.696; with JNK-9L, 0.569; with CUDC-101, 0.618; with OSU-03012 it was 0.814; with AC220 it was 0.97; with RDEA119 (screen: GDSC drug entry 1014), 0.873. For the same cell line, the AUC in the experiment with RDEA119 (screen: GDSC drug entry 1526) came to 0.927; with QS11, 0.951. For the same cell line, the IC50 with 5-Fluorouracil was 7.11 µM; in the experiment with JNK-9L, 0.494 µM; in the experiment with CUDC-101, 0.675 µM; with OSU-03012 it was 8.72 µM; with AC220, more than 1.02 µM; in the experiment with RDEA119 (screen: GDSC drug entry 1014) it was 4.82 µM. The IC50 with RDEA119 (screen: GDSC drug entry 1526) was more than 5 µM; in the experiment with QS11 it was more than 10.2 µM.

Turning to “COLO-678 (large intestine, semi-adherent)”, the AUC with 5-Fluorouracil came to 0.964; with JNK-9L it was 0.7; with CUDC-101 it was 0.839; with OSU-03012, 0.896; with AC220 it was 0.983; with RDEA119 (screen: GDSC drug entry 1014) it was 0.705. The AUC with RDEA119 (screen: GDSC drug entry 1526) is 0.803; with QS11 it was 0.98. For the same cell line, the half-maximal inhibitory concentration (IC50) was more than 32 µM with 5-Fluorouracil; 1.39 µM with JNK-9L; 5.06 µM in the experiment with CUDC-101; more than 16 µM with OSU-03012; more than 1.02 µM with AC220; 1.42 µM with RDEA119 (screen: GDSC drug entry 1014). Also, the IC50 with RDEA119 (screen: GDSC drug entry 1526) was 3.37 µM; with QS11 it was more than 10.2 µM.

In the case of COLO-679 (melanoma, adherent), the AUC with 5-Fluorouracil was 0.885; with JNK-9L, 0.511; in the experiment with CUDC-101, 0.762; in the experiment with OSU-03012 it was 0.651; in the experiment with AC220, 0.971; with RDEA119 (screen: GDSC drug entry 1014), 0.409. For the same cell line, the AUC worked out at 0.294 with RDEA119 (screen: GDSC drug entry 1526) and 0.753 with QS11. Also, the IC50 with 5-Fluorouracil is more than 32 µM; in the experiment with JNK-9L, 0.345 µM; in the experiment with CUDC-101, 2.04 µM; with OSU-03012 it was 2.76 µM; with AC220 it was more than 1.02 µM; with RDEA119 (screen: GDSC drug entry 1014) it was 0.171 µM. Also, the 50% inhibitory concentration (IC50) with RDEA119 (screen: GDSC drug entry 1526) is 0.0759 µM; in the experiment with QS11, 3.8 µM.

COLO-680N (oesophagus, adherent): the AUC in the experiment with 5-Fluorouracil worked out at 0.974; in the experiment with JNK-9L, 0.561; in the experiment with CUDC-101 it was 0.958; in the experiment with OSU-03012, 0.703; in the experiment with AC220, 0.977; in the experiment with RDEA119 (screen: GDSC drug entry 1014), 0.949. The AUC is 0.906 in the experiment with RDEA119 (screen: GDSC drug entry 1526) and 0.972 with QS11. In addition, the IC50 is more than 32 µM in the experiment with 5-Fluorouracil; 0.486 µM in the experiment with JNK-9L; more than 5.12 µM with CUDC-101; 4.18 µM in the experiment with OSU-03012; more than 1.02 µM in the experiment with AC220; more than 5 µM with RDEA119 (screen: GDSC drug entry 1014). Also, the IC50 with RDEA119 (screen: GDSC drug entry 1526) is more than 5 µM; with QS11 it was more than 10.2 µM.

Consider COLO-684 (endometrium, suspension), for which the AUC with 5-Fluorouracil is 0.71; with JNK-9L it was 0.602; with CUDC-101, 0.556; with OSU-03012, 0.771; with AC220, 0.924; with RDEA119 (screen: GDSC drug entry 1014) it was 0.977. Further, the AUC with RDEA119 (screen: GDSC drug entry 1526) came out at 0.976; in the experiment with QS11 it was 0.912. Besides, the IC50 was 8.52 µM with 5-Fluorouracil; 0.633 µM with JNK-9L; 0.463 µM in the experiment with CUDC-101; 6.92 µM with OSU-03012; more than 1.02 µM with AC220; more than 5 µM in the experiment with RDEA119 (screen: GDSC drug entry 1014). Further, the IC50 in the experiment with RDEA119 (screen: GDSC drug entry 1526) was more than 5 µM; in the experiment with QS11, more than 10.2 µM.

For COLO-783 (melanoma, adherent), the AUC with 5-Fluorouracil came out at 0.99; with JNK-9L, 0.918; with CUDC-101, 0.761; in the experiment with OSU-03012 it was 0.991; with AC220, 0.99; with RDEA119 (screen: GDSC drug entry 1014), 0.741. The AUC in the experiment with RDEA119 (screen: GDSC drug entry 1526) is 0.798; with QS11, 0.987. Also, the IC50 is more than 32 µM with 5-Fluorouracil; more than 5.12 µM in the experiment with JNK-9L; 1.75 µM in the experiment with CUDC-101; more than 16 µM with OSU-03012; more than 1.02 µM in the experiment with AC220; 1.48 µM in the experiment with RDEA119 (screen: GDSC drug entry 1014). Besides, the figures for the IC50 with RDEA119 (screen: GDSC drug entry 1526) and in the experiment with QS11 were 2.28 µM and more than 10.2 µM, respectively.
